Measurements from PubChem BioAssay AID624417 (National Center for Advancing Translational Sciences (NCATS), 2012).
Among all 410,000 compounds or so, about 6,400 (1.6%) were called active. Inconclusive means that the source gave no clear call. Such entries were picked first, then a sample of the others. The call rests on the fitted dose curve; in most records, active means well fitted inhibition curve with a large enough effect; inconclusive means small, poorly fitted or top-dose-only effect; inactive means no such curve, though single readings can be large or run the other way. Potencies beside an inconclusive call are fits to weak or partial responses and may not hold up.

target: Glucagon-like peptide 1 receptor (Homo sapiens) (UniProt P43220); assay: qHTS of GLP-1 Receptor Inverse Agonists (Inhibition Mode); settings: HEK293 GLP-1R CRE-luciferase, luminescence, 24 h, GLP-1R form is constitutively active; activity change, negative = inhibition: at 38.3 µM (top of the series) unless noted; further: nearly all actives have a fitted effect of over 55% in size
Chain of UniProt P43220 (P43220 whole entry, looked up): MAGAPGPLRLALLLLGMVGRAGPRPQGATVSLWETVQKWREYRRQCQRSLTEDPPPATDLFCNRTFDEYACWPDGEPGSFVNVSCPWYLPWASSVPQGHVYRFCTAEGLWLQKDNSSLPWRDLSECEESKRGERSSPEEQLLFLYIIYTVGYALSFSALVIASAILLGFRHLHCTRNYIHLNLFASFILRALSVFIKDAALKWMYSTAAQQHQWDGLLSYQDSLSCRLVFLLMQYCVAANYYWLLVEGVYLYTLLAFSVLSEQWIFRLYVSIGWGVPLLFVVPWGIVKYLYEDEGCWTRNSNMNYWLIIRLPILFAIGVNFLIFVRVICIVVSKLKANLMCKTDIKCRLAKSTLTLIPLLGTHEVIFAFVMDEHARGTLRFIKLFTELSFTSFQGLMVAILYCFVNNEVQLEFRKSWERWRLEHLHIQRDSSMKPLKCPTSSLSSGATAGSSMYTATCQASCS
Method in brief: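 Assay principle: reduced luminescence from a cAMP-responsive reporter in HEK293 cells co-expressing a constitutively active GLP-1R. Conditions: 24 hr compound incubation, 37 deg C, 5% CO2.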
On the % scale 0 is the no-effect control and ±100 the full control effect; potency means the concentration at half of the fitted maximal effect; tags describe the fitted curve by direction and shape.

Activity change, negative = inhibition, inactive:
COc1ccccc1-c1nnc2sc(-c3ccc(N(C)C)cc3)nn12 -20.2%, Cc1ccc(NC(=S)NNc2ccc([N+](=O)[O-])cc2S(=O)(=O)Nc2ccccc2C(=O)O)cc1C 1.02%, COc1ccc(NC(=O)N(C)C[C@H]2Oc3ccc(NS(=O)(=O)c4ccccc4)cc3C(=O)N([C@H](C)CO)C[C@@H]2C)cc1 16.7%, COc1ccc(-c2cc(=O)c3cc(OCC(=O)OC(C)C)ccc3o2)cc1 11.3%, O=C(NCc1ccco1)c1ccc(N2CCCC2=O)cc1 33.7%, Cc1nn(-c2ccccc2)c2c1cc1c(=O)n(C)c(=O)nc-1n2-c1cccc(Cl)c1 2.66%, COc1cc(NC(=O)CN2c3ccccc3CC2C)cc(OC)c1OC (stereo not given) 0.53%, O=C(N/N=C/c1ccc(-c2cccc([N+](=O)[O-])c2)o1)c1cccs1 27.1%, CSc1ccccc1OCc1cc(C(=O)NCc2cccc(C)n2)no1 -14.9%, Cc1ccccc1C(=O)OCC(=O)NCc1ccco1 -12.5%, Cc1c(C)n(CC(O)CN2CCN(C)CC2)c2ccccc12 (stereo not given) -27.5%, CCOC(=O)N1CCN(C(=O)c2ccc(CS(=O)c3cccc(C)c3)o2)CC1 (stereo not given) -3.97%, C=CCn1c2[n+](c3ccccc3c1=O)CCCCC2 -4.22%, Nc1ccc(Sc2cnn(-c3ccccc3)c(=O)c2Cl)cc1 -27.8%, O=S(=O)(c1ccsc1)N1CC=C(c2ccccc2)CC1 -7.74%, COc1ccc(C(=O)CSc2nnc(CNc3ccc(C)cc3C)n2Cc2ccco2)cc1 0%, Cc1[nH]nc(SCC(=O)N2CCCC2)c1[N+](=O)[O-] -11.5%

Potency, active:
CC(=O)c1ccc(-c2cc([C@H]3[C@H]4C=CC[C@@H](C)[C@@H]4C(=O)N3Cc3ccccc3)ccc2F)cc1 11.2 µM, COc1cccc(/C=N/Nc2ccc([N+](=O)[O-])cc2)c1O 1.78 µM

Potency, inconclusive:
CCNC(=O)c1ccc2c(c1)C1C3CCC(C3)C1C(c1ccccc1)N2 (stereo not given) 1 µM [inhibitor, full curve, poor fit], COc1cc(-c2coc3c(C(=O)Nc4ccc(C(C)C)cc4)cccc23)ccc1O 5.01 µM [inhibitor, partial curve], CCOc1ccc(NC(=O)C2CCC(N3C(=O)C4CC=CCC4C3=O)CC2)cc1 (stereo not given) 7.94 µM [inhibitor, partial curve, poor fit], O=c1[nH]nc(SCCS(=O)(=O)c2ccc(F)cc2)n1-c1ccccc1 28.2 µM [inhibitor, single point], Cc1ccc2c(C)c(C(=O)N3CCC(N4CCC(C(=O)NC5CC5)CC4)CC3)oc2c1 6.31 µM [inhibitor, partial curve], CN(Cc1ccc(C(C)(C)C)cc1)C(=O)C1CSC2(C)CCC(=O)N12 (stereo not given) 11.2 µM [inhibitor, single point], CCOC(=O)c1c(C)nc2c(c1-c1ccc(Cl)cc1)C(=O)CC(C)(C)C2 2.82 µM [inhibitor, single point], CCCNC(=O)C(=O)Nc1ccc2c(c1)N(S(=O)(=O)c1cccs1)CCC2 8.91 µM [inhibitor, partial curve, poor fit], CCN1CCN(C(c2ccc(SC)cc2)c2c(O)cc(C)n(Cc3ccco3)c2=O)CC1 (stereo not given) 28.2 µM [inhibitor, single point], CCOc1ccc(-n2cnc3sc4c(c3c2=O)CCCC4)cc1 11.2 µM [inhibitor, single point], O=C(NC(=S)NC1CCCCC1)c1ccc(F)cc1 28.2 µM [inhibitor, single point], O=C(NC1CCCCC1)C(c1cccs1)N(CCCN1CCOCC1)C(=O)c1ccc(-c2ccccc2)[nH]1 (stereo not given) 12.6 µM [inhibitor, single point], COc1ccc(N2CCN(C(CNC(=O)C3CCCCC3)c3ccco3)CC2)cc1 (stereo not given) 14.1 µM [inhibitor, single point], COc1ccccc1NC(=O)C1CCN(S(=O)(=O)c2ccc3[nH]c4c(c3c2)CCCCC4)CC1 7.94 µM [inhibitor, partial curve, poor fit], CC(=O)c1ccc(OCCCC(=O)N2CCN(S(=O)(=O)c3ccc(C(C)C)cc3)CC2)cc1 28.2 µM [inhibitor, single point], O=C(COC(=O)C(Cc1c[nH]c2ccccc12)NC(=O)c1ccc(Cl)cc1)c1ccc(Cl)cc1 (stereo not given) 10 µM [inhibitor, partial curve], Oc1ccc(-c2nc(-c3ccccc3)c(-c3ccc(Br)cc3)[nH]2)cc1 8.91 µM [inhibitor, partial curve, poor fit], CCCOC(=O)C1C2C=CC(C3CC23)C1C(=O)OCC(=O)c1ccccc1 (stereo not given) 11.2 µM [inhibitor, partial curve, poor fit], C(=N\Nc1ncnc2sc3c(c12)CCC3)/c1ccncc1 28.2 µM [inhibitor, single point], O=C(/C=C/c1ccc2ccccc2n1)N1CCN(S(=O)(=O)c2ccccc2F)CC1 11.2 µM [inhibitor, partial curve, poor fit], COc1ccccc1NC(=S)Nc1ccccn1 15.8 µM [inhibitor, partial curve, poor fit], O=C(NCc1nnc(SCc2ccc(F)cc2)n1-c1ccccc1)C12CC3CC(CC(C3)C1)C2 14.1 µM [inhibitor, single point], Cc1cccc(Nc2nc(C)nc3c2oc2ccccc23)c1 12.6 µM [inhibitor, single point], CN(CC(=O)NC(=O)NC1CCCCC1)c1ccccc1 11.2 µM [inhibitor, partial curve, poor fit], Cc1nc2c(-c3ccccc3)c(C)nn2c(C)c1CCC(=O)Nc1ccccc1F 28.2 µM [inhibitor, single point], O=C(/C(N=Nc1cccc(C(F)(F)F)c1)=C(/O)c1cccs1)C(F)(F)F 11.2 µM [inhibitor, partial curve, poor fit], COc1cc(NC(=S)Nc2ccccn2)cc(OC)c1 28.2 µM [inhibitor, single point], COc1cccc2c(Cl)c(CCCl)c(C)nc12 10 µM [inhibitor, partial curve, poor fit], O=S(=O)(c1cc(F)ccc1F)N1CCC2(CC1)OCCN2S(=O)(=O)c1ccccc1 31.6 µM [inhibitor, single point], O=C1CCCCC1(CCc1ccncc1)CCc1ccncc1 1.58 µM [inhibitor, full curve, poor fit], O=C(Nc1ccccc1)c1cn(CCBr)cn1 11.2 µM [inhibitor, single point], Cc1ccc(-c2nn(CCC(=O)O)cc2/C=C\C(=O)c2ccc(Br)cc2)cc1 11.2 µM [inhibitor, single point], CCC(=O)N(CCC(c1ccco1)c1ccccc1OC)Cc1cccs1 (stereo not given) 10 µM [inhibitor, single point], Cc1ccc(-n2cc(CN3CCN(Cc4nccn4C)CC3)c(-c3cccc(C)c3)n2)cc1 7.94 µM [inhibitor, partial curve], CN(CCOc1ccc(Cl)cc1)C(=O)CN1C(=O)NC2(CCCCC2)C1=O 8.91 µM [inhibitor, partial curve], O=S(=O)(Nc1cc(Sc2ncn[nH]2)c(O)c2ccccc12)c1ccccc1 3.98 µM [inhibitor, full curve, poor fit], CCC(C)c1ccc(NC(=O)c2ccco2)cc1 (stereo not given) 8.91 µM [inhibitor, partial curve, poor fit], Cc1ccccc1C(=O)Nc1c(C(=O)N(CCN(C)C)Cc2ccco2)oc2ccccc12 10 µM [inhibitor, partial curve, poor fit], Cc1ccc(/C=N\NC(=O)COc2ccc(C)cc2[N+](=O)[O-])cc1 7.08 µM [inhibitor, partial curve], COCCNc1nc(Oc2ccc(Cl)c(Cl)c2)c2sccc2n1 12.6 µM [inhibitor, single point], CCc1ccc(OCc2cccc(C(=O)N/N=C\c3cnn(C)c3C)c2)cc1 28.2 µM [inhibitor, single point], Cc1ccc(NS(=O)(=O)c2ccc3c(c2)[C@H]2C=CC[C@H]2[C@@H](c2ccc(F)cc2)N3)cc1C 11.2 µM [inhibitor, single point], O=C(c1ccc(N2CCCCS2(=O)=O)cc1)N1CCN(c2ccccc2F)CC1 0.501 µM [inhibitor, full curve, poor fit], CCOc1ccccc1N(CC(=O)Nc1ccccc1Br)S(=O)(=O)c1ccccc1 28.2 µM [inhibitor, single point], N/C(Cc1ccc([N+](=O)[O-])cc1)=N\OC(=O)c1ccc2ccccc2c1 11.2 µM [inhibitor, partial curve, poor fit], CS(=O)(=O)c1nc(S(=O)(=O)c2ccc(Cl)cc2)c(N2CCC(O)CC2)s1 28.2 µM [inhibitor, single point]
